The supplement of paper PMC10126150
Values marked as one replicate rest on one cluster of the flow cell; about a third of the high ones do not repeat.

Each sequence was assayed on ATP (assay: switch fluorescence ratio, 500 uM ATP over buffer (Cy3 cluster intensity, sum of 5 cycles each) (fold (ratio)); higher = stronger signal-on switching upon ATP binding; sequences stand for … in TCGTCGGCAGCGTCAGATGTGTATAAGAGACAGTTTTTTTTTTTTTTTTTTTTTTTTT…TC). Conditions: aptamer strand: ATP DNA aptamer (quencher-CACCTGGGGGAGTATTGCGGAGGAAGG + anchor), 100 nM annealed; ATP concentration: 500 uM; one replicate.
Method in brief: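 Exposure to 500 uM ATP lasted 15 min at 22 °C before imaging, and a selection-buffer image was taken beforehand, for Cy3-labelled switching-strand clusters on a modified Illumina MiSeq flow-cell annealed to 100 nM quencher-labelled ATP aptamer. Five buffer/ATP cycles were run with NaOH stripping and re-annealing between them. The fluorescence ratio per cluster is summed target-cycle over summed buffer-cycle Cy3 intensity, averaged per switch-domain sequence. Clusters outside 100-1000 RFU were excluded.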
Work on TGGGATCGG yielded a switch fluorescence ratio of 1.01. Work on GTACTGGT yielded a switch fluorescence ratio of 1.02. For AATGTCCGGT, the switch fluorescence ratio was 0.972. GGAAGGCCCA was tested, and the switch fluorescence ratio was 1.01. Sequence CTGTTGGTTC has a switch fluorescence ratio of 1.01. For GAATGACTTT, the switch fluorescence ratio was 0.984. Work on AGAAATTAAG yielded a switch fluorescence ratio of 1. CTGTTCCCGG gave a switch fluorescence ratio of 1.09. ACTGCCCTCG showed a switch fluorescence ratio of 1.14. TAAGAGTGTG was tested, and the switch fluorescence ratio was 0.983. In the case of AGTCCTGCCT, the switch fluorescence ratio was 1.06. Work on GCTGTTTGCG yielded a switch fluorescence ratio of 1.01. In the case of GTTAATAGCG, the switch fluorescence ratio was 0.987. GGATATGCAC showed a switch fluorescence ratio of 1.07. With AATTGTCTTC the switch fluorescence ratio was 1.01. Work on GAGAGCATTG yielded a switch fluorescence ratio of 1.01. TCCCAGTTTT gave a switch fluorescence ratio of 1.06. GTGAGTAAAA showed a switch fluorescence ratio of 1. For AGCTACTCTA, the switch fluorescence ratio was 1.25. GACCATAGGG gave a switch fluorescence ratio of 1.06. For CTAGGTGAAG, the switch fluorescence ratio was 0.982. With TCGGAGCCT the switch fluorescence ratio was 1.08. In the case of GCCTTGAGCG, the switch fluorescence ratio was 1.02. For ATTATTGTTC, the switch fluorescence ratio was 1.01. With CAGGGCTGGG the switch fluorescence ratio was 1.01. Work on TCCGGGCGG yielded a switch fluorescence ratio of 1.05. With GTGCGGGGTT the switch fluorescence ratio was 0.996. CCTTCGAGTG showed a switch fluorescence ratio of 1.27. With GTCGGGAGTT the switch fluorescence ratio was 1.01. GGGCCTAGGG showed a switch fluorescence ratio of 0.956. Work on TTGAAGAGC yielded a switch fluorescence ratio of 1.1. Sequence TGCGCTCATA has a switch fluorescence ratio of 1.01. Work on AAGGTCTTTT yielded a switch fluorescence ratio of 0.97. ACGAGGTCCG gave a switch fluorescence ratio of 1.07. For ACCACGAGGT, the switch fluorescence ratio was 1.05. Work on TTACTTCAAG yielded a switch fluorescence ratio of 1.07. For TTTTGAACT, the switch fluorescence ratio was 0.952. TAGTTTGCCT was tested, and the switch fluorescence ratio was 1.06. Work on GATAGAATCG yielded a switch fluorescence ratio of 1.03. CGTGGAGGCA was tested, and the switch fluorescence ratio was 0.971. CAGGAGAGTT showed a switch fluorescence ratio of 0.987. In the case of AGATGCGATA, the switch fluorescence ratio was 0.934. With GGCATTCATG the switch fluorescence ratio was 1.01. Work on AAAGCACCGA yielded a switch fluorescence ratio of 1.11. AGTGAGGCCC showed a switch fluorescence ratio of 1.04. GGAAGAGGGC showed a switch fluorescence ratio of 0.975. In the case of GCGTAATCC, the switch fluorescence ratio was 1.9. Sequence CAGGTCAC has a switch fluorescence ratio of 1. Work on ACTAGCTGGG yielded a switch fluorescence ratio of 1.01. Sequence GGAGATCCGT has a switch fluorescence ratio of 1. Sequence CAGTTCCTCA has a switch fluorescence ratio of 1.06. With AGTCAGCTAG the switch fluorescence ratio was 0.99. In the case of CACGTGAACA, the switch fluorescence ratio was 1.03. Work on AGATCATACG yielded a switch fluorescence ratio of 1.07. GCCCGGGTTG gave a switch fluorescence ratio of 1.26. Work on TGCTAACCGT yielded a switch fluorescence ratio of 1. GCAACCTCAC showed a switch fluorescence ratio of 1.74. With AACGGTATCG the switch fluorescence ratio was 0.97. CCTCTCAGAG showed a switch fluorescence ratio of 1.23. CAGCAACGCT was tested, and the switch fluorescence ratio was 1.02. In the case of ATATCGGAGC, the switch fluorescence ratio was 0.961. CCTAGGTATC showed a switch fluorescence ratio of 1.01. Work on GATACTTTG yielded a switch fluorescence ratio of 1.02. ACCTCGGGCT showed a switch fluorescence ratio of 0.963. With AAAGAGGGGT the switch fluorescence ratio was 1.01. TCGTCACTTC gave a switch fluorescence ratio of 1.06. AAGCACAAAT was tested, and the switch fluorescence ratio was 1.12. Sequence CTAAGTTGCA has a switch fluorescence ratio of 0.997. In the case of TTTAAGCGTC, the switch fluorescence ratio was 1.08. Work on TAAGGGACTC yielded a switch fluorescence ratio of 1.01. Sequence GGTCACGAGA has a switch fluorescence ratio of 1.02. In the case of TTTCTCCATG, the switch fluorescence ratio was 1. ACGGGGCACC was tested, and the switch fluorescence ratio was 0.983. Work on GATTATCGCC yielded a switch fluorescence ratio of 0.979. Sequence ATAACTAGAG has a switch fluorescence ratio of 1.06. In the case of TGAGATAGTG, the switch fluorescence ratio was 1.01. AAACTACGAG showed a switch fluorescence ratio of 0.992. CTATGGTTGA gave a switch fluorescence ratio of 0.992. Work on GTAATCATGT yielded a switch fluorescence ratio of 1.07. In the case of AGTGGGTGTA, the switch fluorescence ratio was 1.01. For CTTCAAATGT, the switch fluorescence ratio was 0.958. For CCGGACATGC, the switch fluorescence ratio was 3.06. Work on TGTGAGAGCT yielded a switch fluorescence ratio of 0.986. TGTGCCTAGG gave a switch fluorescence ratio of 0.989. For TAGAAGCA, the switch fluorescence ratio was 1.14. TCGGCTTACC gave a switch fluorescence ratio of 1.03. In the case of GATCGATGTT, the switch fluorescence ratio was 0.985. CACCCGGGGG gave a switch fluorescence ratio of 1.1. In the case of CATATCGGTG, the switch fluorescence ratio was 0.96. Sequence GTGCTAGGTA has a switch fluorescence ratio of 0.973. In the case of GGCGGTAAGC, the switch fluorescence ratio was 1.04. With AGCAATCTA the switch fluorescence ratio was 2.13. In the case of TTCTTCAAGG, the switch fluorescence ratio was 0.978. With ACACCGCCAA the switch fluorescence ratio was 3.23. Sequence GAGTCTGGTG has a switch fluorescence ratio of 0.987. Work on ATGGCGGCAG yielded a switch fluorescence ratio of 0.99. TAGCCCGGTT gave a switch fluorescence ratio of 1.02. Sequence CTAATTATGC has a switch fluorescence ratio of 1.06. Work on TTGTACTAA yielded a switch fluorescence ratio of 0.98. Work on TGGCATGTCC yielded a switch fluorescence ratio of 1. AGCCTCAGGC showed a switch fluorescence ratio of 1. TATTAGGGA showed a switch fluorescence ratio of 0.998. For GATGAATGCG, the switch fluorescence ratio was 0.98. In the case of CCAGTAGCCG, the switch fluorescence ratio was 1.23. For GGGGGAGGA, the switch fluorescence ratio was 0.985. TGAGGCGTAG was tested, and the switch fluorescence ratio was 0.957. TGATTACACT was tested, and the switch fluorescence ratio was 1.01. With ACATAATAAA the switch fluorescence ratio was 1.04. Sequence CTAGAAACAG has a switch fluorescence ratio of 0.991. For CTGTGATTAG, the switch fluorescence ratio was 1.03. Work on TATTGGCGTG yielded a switch fluorescence ratio of 0.96. TCCGGTCCCT gave a switch fluorescence ratio of 1.06. AGTCCGCGGG gave a switch fluorescence ratio of 1.26. In the case of GTAAGAGTAT, the switch fluorescence ratio was 0.97. Sequence TCGGGGAATC has a switch fluorescence ratio of 1.01. For TCGAAGTCAA, the switch fluorescence ratio was 3.58. In the case of GAACTTAGCG, the switch fluorescence ratio was 0.938. Work on CCCCAATGCC yielded a switch fluorescence ratio of 1.49. GTCCATAGTC showed a switch fluorescence ratio of 1.02. With CCCTTCCCTC the switch fluorescence ratio was 1.8. GTGTAATTTA was tested, and the switch fluorescence ratio was 1.01. For GACCATGTTA, the switch fluorescence ratio was 1.02. GTCTGAACCT showed a switch fluorescence ratio of 2.01. GCTTAAGGGA gave a switch fluorescence ratio of 0.982. AAAGCTGATA showed a switch fluorescence ratio of 0.987. In the case of AGCAGCGTTT, the switch fluorescence ratio was 1.08. Work on GATTTTCCAG yielded a switch fluorescence ratio of 0.993. Work on TAGGTGGCGA yielded a switch fluorescence ratio of 0.964. With ACGTTCCATG the switch fluorescence ratio was 1.02. ATGAGAAGAG showed a switch fluorescence ratio of 1.01. AAATATGTCA was tested, and the switch fluorescence ratio was 0.94. Work on CACATTTAGA yielded a switch fluorescence ratio of 1.01. AGTATATTG was tested, and the switch fluorescence ratio was 1.01. TCTATCCAAT gave a switch fluorescence ratio of 1.06. In the case of TCCTTAGAGT, the switch fluorescence ratio was 0.972. TTGAGGGCGA showed a switch fluorescence ratio of 1.02. TACGTAATCC was tested, and the switch fluorescence ratio was 1.51. Sequence GTTGAAGACA has a switch fluorescence ratio of 0.982. Sequence TAGTAACAAG has a switch fluorescence ratio of 0.989. In the case of AGCGAGCACT, the switch fluorescence ratio was 1.01. TAAGCACGGT was tested, and the switch fluorescence ratio was 1.07. For CTTGCTAGTC, the switch fluorescence ratio was 1.01. Sequence AGAGATAAC has a switch fluorescence ratio of 1.03. CGGGCGCGAG showed a switch fluorescence ratio of 0.981. TTGAAATGCG gave a switch fluorescence ratio of 0.993. Work on CCATCACGGA yielded a switch fluorescence ratio of 1.05. AAAACATCCA was tested, and the switch fluorescence ratio was 1.03. TCAAAACCAA gave a switch fluorescence ratio of 1.04. In the case of CAGAGCCGCA, the switch fluorescence ratio was 0.979. For TTTGGTCGT, the switch fluorescence ratio was 0.976. GTTTGGTTTG was tested, and the switch fluorescence ratio was 1.01. In the case of TTAAATTTC, the switch fluorescence ratio was 0.936. In the case of ACACATTTT, the switch fluorescence ratio was 0.982. TAAACTTGTT showed a switch fluorescence ratio of 1. In the case of GTGCGTACCG, the switch fluorescence ratio was 0.975. CGCAGGAGCG gave a switch fluorescence ratio of 0.981. In the case of GGAACTTAC, the switch fluorescence ratio was 2.3. In the case of ATGGTGCTTG, the switch fluorescence ratio was 1.04.
